Data taken from article PMC4336329 (PLoS ONE, 2015).
The campaign covered roughly 310,000 compounds. About 14,000 (4.5%) showed an effect of 50% or more. Effects have a minus sign here. This is one part of the list.

biological target: human ether-à-go-go-related gene (hERG) potassium channel (human, UniProt Q12809); assay: primary screen, population patch clamp on CHO cells stably expressing hERG
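Note: peak tail current of the secondary pulse compared with the same well before compound.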

Sequence of human ether-à-go-go-related gene (hERG) potassium channel (Q12809 whole entry, looked up): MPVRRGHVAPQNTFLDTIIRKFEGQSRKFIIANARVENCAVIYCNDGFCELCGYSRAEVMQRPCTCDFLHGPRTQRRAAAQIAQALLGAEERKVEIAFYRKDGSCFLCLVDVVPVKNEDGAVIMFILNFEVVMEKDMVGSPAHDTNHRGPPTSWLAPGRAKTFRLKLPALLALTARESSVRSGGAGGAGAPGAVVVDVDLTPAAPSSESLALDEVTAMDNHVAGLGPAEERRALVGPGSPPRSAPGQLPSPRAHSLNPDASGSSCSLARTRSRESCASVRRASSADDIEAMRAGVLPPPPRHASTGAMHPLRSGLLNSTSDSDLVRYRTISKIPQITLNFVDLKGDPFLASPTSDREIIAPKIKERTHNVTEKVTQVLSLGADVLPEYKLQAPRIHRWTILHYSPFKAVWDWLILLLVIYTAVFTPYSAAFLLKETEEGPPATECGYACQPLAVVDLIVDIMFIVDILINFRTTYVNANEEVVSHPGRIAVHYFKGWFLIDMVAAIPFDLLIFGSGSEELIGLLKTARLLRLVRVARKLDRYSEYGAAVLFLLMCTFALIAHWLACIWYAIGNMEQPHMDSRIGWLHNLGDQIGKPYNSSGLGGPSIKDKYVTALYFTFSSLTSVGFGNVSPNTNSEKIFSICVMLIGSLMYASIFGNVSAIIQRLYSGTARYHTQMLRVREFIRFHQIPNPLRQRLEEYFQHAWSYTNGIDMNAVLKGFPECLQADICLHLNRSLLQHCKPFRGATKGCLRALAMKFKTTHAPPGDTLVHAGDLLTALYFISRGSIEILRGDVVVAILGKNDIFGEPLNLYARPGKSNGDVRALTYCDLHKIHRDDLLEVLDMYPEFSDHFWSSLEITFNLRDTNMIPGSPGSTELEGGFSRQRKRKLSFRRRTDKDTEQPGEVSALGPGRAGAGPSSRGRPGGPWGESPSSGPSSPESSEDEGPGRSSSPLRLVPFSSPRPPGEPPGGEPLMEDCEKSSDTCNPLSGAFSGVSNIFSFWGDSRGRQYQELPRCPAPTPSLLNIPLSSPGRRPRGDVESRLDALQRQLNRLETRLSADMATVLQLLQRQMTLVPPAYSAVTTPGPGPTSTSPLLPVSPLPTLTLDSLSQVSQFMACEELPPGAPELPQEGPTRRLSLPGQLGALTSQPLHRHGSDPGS

Compound | hERG current change (%, negative = inhibition) at 10uM [%]
Cc1cccc(NC(=O)CNC(=O)c2cccc(S(=O)(=O)NCc3cccs3)c2)c1C | 2.53
COc1cc2c(c(OC)c1CC=C(C)C)C[C@H](c1ccc(O)cc1O)CO2 | 8.09
N#CC(c1ccc(Cl)cc1)c1ccc2c(C(F)(F)F)cc(C(F)(F)F)nc2n1 (stereo not shown) | 6.7
COC(=O)N1c2ccccc2CCc2ccccc21 | 21.5
O=C(c1ccc2c(c1)OCO2)C1CCCN(Cc2ccccc2OC(F)F)C1 (stereo not shown) | -58.8
O=C(COC(=O)c1cccc(S(=O)(=O)N2CCOCC2)c1)Nc1ccc(Cl)cn1 | -61.1
O=C(CSc1nc(Cc2ccccc2)nc2ccccc12)Nc1nc2c(s1)CCCC2 | 17.8
Cc1cc(=O)oc2cc(OC(=O)c3cncc(Br)c3)ccc12 | 11.7
COc1ccc(C2/C=C\CN(C(=O)c3ccc(C)cc3)CC(=O)N2Cc2ccc(F)cc2)cc1 (stereo not shown) | -43.7
O=C(COc1cccc(C(F)(F)F)c1)NCC(c1cccs1)N1CCOCC1 (stereo not shown) | -36.7
O=C(O)C(Cc1c[nH]c2ccccc12)NS(=O)(=O)c1cccc(Cl)c1Cl (stereo not shown) | 21.1
COCc1c(C(=O)NCc2ccccc2CN2CCCC2)oc2ccccc12 | -66.4
O=c1[nH]c(/C=C/c2cccc([N+](=O)[O-])c2)c([N+](=O)[O-])c(=O)[nH]1 | 7.62
COCc1ccc(-c2c(-c3ccccc3OC)sc3cc4c(cc23)OCO4)cc1 | 15.6
COc1ccccc1NC(=O)/C=C\C(=O)O | 19.2
O=c1oc2ccccc2c(NCc2cccc(F)c2)c1[N+](=O)[O-] | -4.55
COc1cccc(CNC(=O)c2cccs2)c1 | -4.23
Cc1ccc(-c2ccc(S(=O)(=O)N3CC(C)OC(C)C3)cc2)cc1 (stereo not shown) | 18.7
CCOc1ccc(NC2c3ccccc3C(=O)N2Cc2ccc3c(c2)OCO3)cc1 (stereo not shown) | -1.85
CCOc1ccc(N(CC(=O)NCc2ccc3c(c2)OCO3)C(=O)c2csnn2)cc1 | -15.3
CC(C)CCN(C(=O)C1CSC2(C)CCC(=O)N12)c1c(N)n(Cc2ccccc2)c(=O)[nH]c1=O (stereo not shown) | 6.21
Cc1ccc(-c2csc(NC(=O)c3cccc(C)c3)c2C(=O)O)cc1 | 27.6

Compound | hERG current change (%, negative = inhibition) at 10uM [%]
CCCc1cc(=O)oc2cc(OCC(=O)N3CCN(C(=O)C4COc5ccccc5O4)CC3)ccc12 (stereo not shown) | -65.9
C/C(=N\NC(N)=O)c1ccc(Cl)s1 | 19
N#C/C(=C(/O)COC(=O)CSc1ccc(Cl)cc1)c1nc2ccccc2[nH]1 | 12.6
CCC(C)n1c(-c2cccc(S(=O)(=O)N(CC)CC)c2)n[nH]c1=S (stereo not shown) | 26.6
CCN(CC)S(=O)(=O)c1ccc(N2CCCC2)c(NC(=O)c2c(-c3ccccc3)noc2C)c1 | 15.2
O=C(c1cccc(Cl)c1)C1CCCN(Cc2cccc3cnccc23)C1 (stereo not shown) | -32.7
C#CCOc1ccc(/C=N/O)cc1Cl | -10.8
Cc1ccc(N(C(=O)c2ccc(S(=O)(=O)N(C)C)cc2)C2C=CS(=O)(=O)C2)cc1 (stereo not shown) | 13.6
CN(Cc1ccccc1)CC(O)COc1ccc(CNCCc2cccnc2)cc1 (stereo not shown) | -11.5
COC(=O)c1ccc(N/N=C/c2cc([N+](=O)[O-])cc(OC)c2O)cc1 | 11.5
CNC(=S)N(CCc1c(C)[nH]c2ccc(C)cc12)Cc1cc(OC)c(OC)c(OC)c1 | -12.1
COc1ccc(CNC(=O)CCN2C(=O)[C@@H]3Cc4ccccc4CN3C2=O)cc1 | -32.2
COc1ccc(N2CC(C(=O)Nc3cc(C(F)(F)F)ccc3N3CCCC3)CC2=O)c(OC)c1 (stereo not shown) | -19.5
COc1cc(-c2c(-c3cc(OC)c(OC)c(OC)c3)noc2C)ccc1F | 13.6
Cc1ccccc1C(=O)NCCNC(=O)c1ccccn1 | 6.75
Cc1cc(S(=O)(=O)NCC(C)C)ccc1OCC(=O)NCc1ccccn1 | -22.8
Cc1ccc(-c2csc3nc4cc(C(=O)NC5CCC(O)CC5)ccc4c(=O)n23)cc1 (stereo not shown) | -2
CCS(=O)(=O)N1CCC(C(=O)NCCc2ccccc2)CC1 | 0.876
CC(=O)c1ccc(NC(=O)c2ccc(S(=O)(=O)c3ccccc3)cc2)cc1 | -0.407
Cc1ccsc1/C=N/n1c(-c2ccccn2)n[nH]c1=S | 15.5
Cc1cccc(N2CCN(C(=O)CCN3C(=S)NC(C)(C)CC3C)CC2)c1C (stereo not shown) | -27.7
